Assay results from PubChem BioAssay AID1347071 (National Center for Advancing Translational Sciences (NCATS), 2019).
About 260 (0.063%) of roughly 410,000 compounds were called active. Inconclusive results, whose numbers are uncertain, are shown with a selection of clear calls. The call rests on the fitted dose curve; in most records, active means well fitted activation curve with a large enough effect; inconclusive means small, poorly fitted or top-dose-only effect; inactive means no such curve, though single readings can be large or run the other way. No potency is given beside an inconclusive call; the fits are too rough.
Potency means the concentration at half of the fitted maximal effect; tags describe the fitted curve by direction and shape.

Experiment: qHTS for compounds that reverse cellular toxicity of Amyloid beta (A-beta) peptide in yeast: Primary Screen; further: nearly all actives have a fitted effect of over 55% in size
Conditions: yeast expressing A-beta42, growth rescue, OD600, 48 h; growth rescue: at 46.1 µM (top of the series), 0% DMSO, 100% iron-clioquinol control
Method in brief: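 Yeast A-beta toxicity model in growth medium with pinned compounds, 48 h at 30 C; growth read as absorbance at 600 nm. Normalized to FeCl3/clioquinol equimolar mix (positive) and DMSO (negative).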
With `CN(Cc1ccccc1)C(=O)COC(=O)c1ccc(Br)o1` the Potency was inconclusive [activator, partial curve, poor fit].
For `Cc1cccc(C(=O)NC(=S)NNC(=O)COc2c(C)cccc2C)c1`, the Potency was inconclusive [activator, partial curve, poor fit].
In the case of `C/C(CC(=O)Nc1ccc(Cl)c(Cl)c1)=N\NC(N)=S`, the Potency is reported as inconclusive [activator, single point].
In the case of `COc1ccc(-c2nnc(SCC(=O)Nc3cc(F)ccc3C)o2)cc1`, the Potency is reported as inconclusive [activator, single point].
With `C=Cc1ccc(Cn2c(=O)cc(C)c3c(C)nn(-c4ccccc4)c32)cc1` the “growth rescue” value was inactive: -5.92%.
In the case of `O=C(NCC(c1cccnc1)N1CCc2ccccc21)C(=O)Nc1ccccc1F` (stereo unspecified), the “growth rescue” value is reported as inactive: -3.91%.
In the case of `Cc1ccc(-c2nc(C(=O)NC3CCCCCC3)no2)cc1`, the “growth rescue” value is reported as inactive: -41.2%.
For `CCOC(=O)[C@]12CCCC=C1N(CCc1ccc(OC)c(OC)c1)C(=O)[C@H](CC(=O)NCCCCc1ccccc1)C2`, the “growth rescue” value was inactive: -5.77%.
With `COc1ccc(NC(=S)N2N=CCC2c2ccccc2)cc1` (stereo unspecified) the Potency was inconclusive [activator, partial curve, poor fit].
For `CCOC(=O)C1CN(S(=O)(=O)c2cccc(C(F)(F)F)c2)c2cc(CC(=O)OC)ccc2O1` (stereo unspecified), the Potency was inconclusive [activator, single point].
In the case of `COc1cccc(-c2nc(N3CCN(C)CC3)c3ccccc3n2)c1O`, the “growth rescue” value is reported as inactive: 1.19%.
In the case of `O=C(CN1CCCSc2ccccc21)N1CCN(S(=O)(=O)c2cccc(F)c2)CC1`, the Potency is reported as inconclusive [activator, partial curve, poor fit].
For `S=c1[nH]nc(C(c2ccccc2)C2CCCCC2)o1` (stereo unspecified), the Potency was inconclusive [activator, partial curve, poor fit].
In the case of `Cn1c(-c2ccc3nc(N)sc3c2)nc2cc(N)ccc21`, the Potency is reported as inconclusive [activator, partial curve, poor fit].
In the case of `Cc1ccccc1CS(=O)(=O)c1ncc(Cl)c(C(=O)Nc2nnc(C(C)C)s2)n1`, the “growth rescue” value is reported as inactive: -36.2%.
In the case of `CC(C)CNc1ncnc2c1cnn2Cc1ccc(Cl)cc1`, the Potency is reported as inconclusive [activator, single point].
For `CCCCCCn1c(-c2cccs2)n[nH]c1=S`, the Potency was active: 6.31 µM.
In the case of `Cc1ccc(NC(=S)NCCSc2ccc(Cl)cc2)c(C)c1`, the Potency is reported as inconclusive [activator, full curve, poor fit].
In the case of `Cc1cccc(-n2ncc(C(=O)Nc3ccc4c(c3)OCO4)c2C2CCN(C(=O)OC(C)(C)C)CC2)c1`, the “growth rescue” value is reported as inactive: -15.5%.
In the case of `Cc1cc(C(=O)COc2ccc(F)cc2Br)c(C)n1C1CC1`, the Potency is reported as inconclusive [activator, partial curve].
With `OC(CNc1ccccc1)COc1ccc(OCC(O)CNc2ccccc2)cc1` (stereo unspecified) the Potency was inconclusive [activator, partial curve].
In the case of `CC(C)(C)Nc1nc(Cl)nc(Nc2ccccc2)n1`, the “growth rescue” value is reported as inactive: -12%.
For `COc1ccc(S(=O)(=O)Nc2ccc3c(c2)OCO3)cc1Cl`, the Potency was inconclusive [activator, partial curve, poor fit].
In the case of `COc1ccc(C/C(C)=N/NC(=S)Nc2ccc(Cl)cc2)cc1`, the Potency is reported as inconclusive [activator, partial curve, poor fit].
In the case of `O=C(COC(=O)c1cccc2ccccc12)Nc1ncc(C(F)(F)F)cc1Cl`, the “growth rescue” value is reported as inactive: 15.7%.
For `Cc1c(Cl)cccc1NC(=S)NCCc1ccc(Cl)cc1`, the Potency was active: 10 µM.
With `Cc1ccc(CNC(=O)CN(C)S(=O)(=O)c2ccc(Br)s2)cc1` the “growth rescue” value was inactive: -16.2%.
For `CC(C)c1ccccc1NC(=O)CSc1nnc(COc2ccccc2)o1`, the “growth rescue” value was inactive: 13.1%.
With `CCN(C(=S)Nc1ccccc1F)C1CCCCC1` the Potency was inconclusive [activator, partial curve, poor fit].
With `Cc1nc(Cl)sc1C(=O)Nc1ccc(F)cc1` the “growth rescue” value was inactive: 1.83%.
In the case of `Cc1ccccc1S(=O)(=O)Cc1ccc(C(=O)NCc2ccccc2Cl)o1`, the “growth rescue” value is reported as inactive: -4.04%.
In the case of `Cc1ccccc1OCC(=O)Nc1ccc(N2CCN(C(=O)c3ccco3)CC2)cc1`, the Potency is reported as inconclusive [activator, partial curve, poor fit].
In the case of `Oc1ccccc1/C=N/NC(=S)NCCc1ccccc1`, the Potency is reported as inconclusive [activator, full curve, poor fit].
With `CN(C)Cc1c(C(=O)N/N=C/c2cccc(OCc3c(F)cccc3Cl)c2)nnn1-c1nonc1N` the “growth rescue” value was inactive: -8.2%.
For `O=C(COc1ccccc1)NC(=S)Nc1ccc(Br)cn1`, the Potency was inconclusive [activator, partial curve, poor fit].
With `O=C(CCCN1CCC(O)(c2cccc(C(F)(F)F)c2)CC1)c1ccc(F)cc1` the “growth rescue” value was inactive: -28.3%.
In the case of `O=C1C2C3c4ccccc4C(c4ccccc43)C2C(=O)N1c1cccnc1` (stereo unspecified), the Potency is reported as inconclusive [activator, full curve, poor fit].
With `O=S(=O)(NCCc1csc(-c2cccnc2)n1)c1cccc(F)c1` the Potency was inconclusive [activator, single point].
In the case of `Cc1cc(C)cc(NC(=S)Nc2cccc3cnccc23)c1`, the Potency is reported as inconclusive [activator, single point].
With `CC(C)(C)c1cc(OC(=O)c2ccccc2F)ccc1O` the Potency was inconclusive [activator, single point].
For `N#CCC(CNc1ncc(C(F)(F)F)cc1Cl)OC(=O)c1cccc(C(F)(F)F)c1` (stereo unspecified), the Potency was inconclusive [activator, single point].
With `CCOP(=O)(OCC)C(Nc1cccc(C(F)(F)F)c1)c1ccc(C)cc1` (stereo unspecified) the Potency was inconclusive [activator, single point].
For `CC(C)c1ccc(S(=O)(=O)c2nnn3c2nc(N2CCOCC2)c2sccc23)cc1`, the “growth rescue” value was inactive: -6.8%.
For `O=C1NC(c2ccc(Cl)cc2Cl)Oc2ccccc21` (stereo unspecified), the Potency was inconclusive [activator, partial curve].
With `Cc1ccccc1OCC(=O)Nc1c(C)ccc2nsnc12` the “growth rescue” value was inactive: -8.16%.
With `Cn1c(C(=O)N2CCC(C(N)=O)CC2)cc2cc(Cl)ccc21` the Potency was inconclusive [activator, partial curve, poor fit].
